Data: ChEMBL document CHEMBL4888484, “Replenishing the malaria drug discovery pipeline: Screening and hit evaluation of the MMV Hit Generation Library 1 (HGL1) against asexual blood stage Plasmodium falciparum ,using a nano luciferase reporter read-out” (2022)
The campaign covered roughly 150,000 compounds. About 540 (0.36%) showed an effect of 50% or more. This is one part of the list.

tested on: Plasmodium falciparum; assay: Primary screen in NF54 nanoGlo assay, in single point, at 2uM, 72h; a lower Z score goes with more inhibition; type: functional, Erythrocyte; details: timepoint 72 hour

Row | Compound | % Inhibition [%] | Z score
1 | Cc1ccccc1NC(=O)c1nnc(CCCC(=O)N2CCCCC2)s1 | -1 | 0.2
2 | O=C(Nc1c[nH]nc1-c1nccs1)NC1CCOC2(CCOC2)C1 (stereo not drawn) | -5 | 0.77
3 | CC(C)N(CC1CCC1)C(=O)Cc1ccc(C(=O)O)cc1 | -11 | 1.39
4 | CCOc1ccc(CN[C@@H](C(=O)O)c2ccnn2C)cc1F | 1 | -0.2
5 | CCc1nc(CN(C)CN2C(=O)NC(C3CC3)(C3CC3)C2=O)cs1 | -8 | 1.49
6 | CC(C)(C)OC(=O)NC1(CNC(=O)C2CCN(C(=O)c3ccc(F)cc3F)CC2)CCCCCC1 | -15 | 1.6
7 | COc1ccc(-c2n[nH]cc2CNCCc2ccc(Cl)cc2)cc1F | 16 | -3.12
8 | C[C@H]1c2c(F)cccc2CCN1C(=O)c1occ2c1CCOC2 | 1 | -0.14
9 | CC1=[N+]([O-])C(C)(C)C(c2cccs2)=[N+]1[O-] | -5 | 0.78
10 | COc1ccc(OCc2cc(C(=O)N(C)[C@@H](C)c3nccs3)n[nH]2)c(Cl)c1 | 8 | -0.73
11 | CC[C@H]1C(=O)NCCN1Cc1cnc(-c2ccccc2)s1 | 0 | -0.01
12 | O=C(C1CCCC1)N1CC(N(Cc2ccccn2)C(=O)Nc2ccccc2)C1 | 3 | -0.59
13 | COc1ccc(Cc2nc3ccccc3n2CC(=O)N2CCC(C)CC2)cc1 | -1 | 0.11
14 | O=c1[nH]nc2n1CC[C@@H](NS(=O)(=O)c1ccc3c(c1)OCCO3)CC2 | -16 | 2.45
15 | Cc1cc(C)nc(N2CCN(c3nccs3)CC2)n1 | -14 | 1.41
16 | Cc1nn(C)cc1-c1cc(-c2cn(C)nc2C)n(Cc2ccc(Cl)cc2)n1 | 35 | -3.97
17 | Clc1cccc(CN2CCC[C@H](n3cncn3)C2)c1Cl | -10 | 1.44
18 | CC1(C)[C@@H]2Cc3nc4c(cc3[C@H]1C2)CCCC4 | 0 | 0
19 | O=C(O)c1cccc(NC(=O)c2cccc3cc[nH]c23)c1 | -18 | 2.53
20 | CN=C(NCC1(c2ccccc2)CC1)NC1CCCCC1 | 3 | -0.41
21 | Cc1cc(C)n(-c2ncc(NC(=O)c3ccc4c(c3)OCO4)cn2)n1 | -7 | 1.06
22 | O=C(C1CCCC1)N1CCN(CCO)CC1 | 5 | -0.78
23 | CNc1cc(-c2nc(CCCN3CCCC3)no2)ccn1 | -3 | 0.63
24 | O=C(c1ccccc1-n1cnnn1)N1CCN(Cc2ccc(-c3cccc(Cl)c3)s2)CC1 | -32 | 3.73
25 | CC(=O)C1CCCCN1S(=O)(=O)C[C@]12CC[C@@H](CC1=O)C2(C)C (stereo partly drawn) | 4 | -0.8
26 | Cc1cc2n(n1)CCCN2CC(=O)Nc1c(C)cccc1C | -10 | 1.78
27 | COc1ccc(N2CCN(C(=O)c3ccc4cn[nH]c4c3)CC2)cc1 | -10 | 1.7

Row | Compound | % Inhibition [%] | Z score
28 | CCc1nnc(CN[C@]2(C(F)(F)F)CCc3ccccc32)o1 | -3 | 0.28
29 | Cc1n[nH]c(C)c1CNCCOc1ccccc1 | -5 | 0.7
30 | CC1CN(CC(O)CN2CCc3cncnc3C2)CC(C)O1 (stereo not drawn) | -3 | 0.47
31 | CCc1ccc2c(c1)[C@]1(C(=O)N2)N2CCC[C@H]2[C@@H](C(=O)c2cccc(OC)c2)[C@]12C(=O)Nc1ccccc12 | -16 | 1.42
32 | CC1(CNC(=O)c2[nH]ccc2C2CC2)CCOCC1 | 28 | -3.17
33 | CCC1C(C)CCN1C(=O)CCCCN1C(=O)c2ccccc2C1=O (stereo not drawn) | -5 | 0.59
34 | Cc1nn(C)cc1-c1csc(CC(F)(F)F)n1 | 15 | -1.77
35 | Cc1nc2ccccc2c(C)c1CC(=O)N(Cc1nnc(-c2ccc(Cl)cc2)o1)C(C)C | -15 | 2.46
36 | Cc1cccc(OC[C@H](C)NC(=O)N2CCOCC2)c1 | 4 | -0.5
37 | C=C(C)CN1C(=O)N[C@@](CC)(C2CCN(C(=O)Cc3c[nH]c4ccccc34)CC2)C1=O | 6 | -0.73
38 | O=C(COC[C@H]1CCCO1)Nc1cnc(C(F)(F)F)nc1 | 3 | -0.52
39 | Cn1ccnc1CN(CCO)C(=O)N[C@H]1CCC[C@H]1Cc1ccc(F)cc1 | -2 | 0.37
40 | CC[C@H]1CCCN1C(=O)c1cnc(Cc2c(Cl)cccc2Cl)nc1O | -14 | 1.8
41 | O=C(NC1CCCCCCC1)c1cc(O)nc2ccccc12 | -18 | 3.55
42 | c1cc(-c2cnc3nncn3c2)n2nccc2c1 | -8 | 0.83
43 | COc1cc(OC)cc(C(=O)N2C[C@H](c3nc(-c4ccncc4)no3)[C@@H](C)C2)c1 | -1 | 0.07
44 | O=C(c1cc(C2CC2)n[nH]1)N1CCC(Oc2ccc(Cl)cc2)CC1 | -11 | 2
45 | Cc1ccc(-c2nc([C@H]3CC(=O)N(c4ccc(F)c(Cl)c4)C3)no2)c(C)c1 | -12 | 1.12
46 | CCC1(C(=O)N2CCC[C@H](CCC(=O)O)C2)CCC1 | -5 | 0.98
47 | O=C(O)C1CC1C(=O)NCCCc1c[nH]c2ccccc12 (stereo not drawn) | -25 | 2.33
48 | CCCc1cc(CN(C)C(=O)c2cnc(N3CCCCC3)nc2C)n[nH]1 | -20 | 1.93
49 | COC(Cn1ccc(=O)c2cc(Oc3ccccc3)ccc21)C1CCOC1 (stereo not drawn) | -12 | 1.53
50 | CNS(=O)(=O)CC(=O)Nc1ccc(F)c(C(=O)OC)c1C | -8 | 0.98
51 | Cc1cccc(-c2nc3c(c(=O)[nH]2)CN(C(=O)c2cccc4ccccc24)CC3)c1 | 2 | -0.32
52 | Cc1nnc(CN2CCC[C@H](c3n[nH]c(-c4ccccc4)n3)C2)s1 | -10 | 1.48
53 | O=C(CN1CCC(C(=O)N2CCCC2)CC1)Nc1cc(Cl)ccc1Cl | -7 | 0.79
54 | Cc1nn(C)c2nc(N3CCN(C4CCCC4)CC3)sc12 | -3 | 0.42
